The list shows a part of the results.
Experiments:
Assay in all cases: glycan array binding signal (z-score within array); higher = stronger binding
Settings in all cases: glycan notation: IUPAC condensed, linker removed
Gal(b1-4)Glc = target: Gal(b1-4)Glc
Summary of the method: (§1)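 Glycan array binding is given as a within-array Z-score, which can be read as non-binding when negative. The arrays, 3228 of them, came from the Consortium for Functional Glycomics database and were retained only where the protein sequence was available. Z-scores were averaged across arrays of the same protein sequence at different concentrations or buffers and across linkers.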

Gal(b1-4)Glc6S = target: Gal(b1-4)Glc6S
Summary of the method: as §1

Gal(b1-4)GlcNAc = target: Gal(b1-4)GlcNAc
Summary of the method: as §1

[1] = target: Gal(b1-4)GlcNAc(a1-6)Gal(b1-4)GlcNAc
Summary of the method: as §1

Gal(b1-4)GlcNAc(b1-2)Man = target: Gal(b1-4)GlcNAc(b1-2)Man
Summary of the method: as §1

[2] = target: Gal(b1-4)GlcNAc(b1-2)Man(a1-3)Man(b1-4)GlcNAc(b1-4)GlcNAc
Summary of the method: as §1

[3] = target: Gal(b1-4)GlcNAc(b1-2)Man(a1-3)[Gal(b1-4)GlcNAc(b1-2)Man(a1-6)]Man(b1-4)GlcNAc(b1-4)GlcNAc
Summary of the method: as §1

[4] = target: Gal(b1-4)GlcNAc(b1-2)Man(a1-3)[Gal(b1-4)GlcNAc(b1-2)Man(a1-6)]Man(b1-4)GlcNAc(b1-4)[Fuc(a1-6)]GlcNAc
Summary of the method: as §1

[5] = target: Gal(b1-4)GlcNAc(b1-2)Man(a1-3)[Gal(b1-4)GlcNAc(b1-2)Man(a1-6)][Gal(b1-4)GlcNAc(b1-4)]Man(b1-4)GlcNAc(b1-4)[Fuc(a1-6)]GlcNAc
Summary of the method: as §1

[6] = target: Gal(b1-4)GlcNAc(b1-2)Man(a1-3)[Gal(b1-4)GlcNAc(b1-2)Man(a1-6)][GlcNAc(b1-4)]Man(b1-4)GlcNAc(b1-4)[Fuc(a1-6)]GlcNAc
Summary of the method: as §1

[7] = target: Gal(b1-4)GlcNAc(b1-2)Man(a1-3)[GlcNAc(b1-2)Man(a1-6)]Man(b1-4)GlcNAc(b1-4)GlcNAc
Summary of the method: as §1

[8] = target: Gal(b1-4)GlcNAc(b1-2)Man(a1-3)[GlcNAc(b1-4)][Gal(b1-4)GlcNAc(b1-2)Man(a1-6)]Man(b1-4)GlcNAc(b1-4)GlcNAc
Summary of the method: as §1

[9] = target: Gal(b1-4)GlcNAc(b1-2)Man(a1-3)[Man(a1-6)]Man(b1-4)GlcNAc(b1-4)GlcNAc
Summary of the method: as §1

[10] = target: Gal(b1-4)GlcNAc(b1-2)Man(a1-6)Man(b1-4)GlcNAc(b1-4)GlcNAc
Summary of the method: as §1

[11] = target: Gal(b1-4)GlcNAc(b1-2)Man(a1-6)[GlcNAc(b1-2)Man(a1-3)]Man(b1-4)GlcNAc(b1-4)GlcNAc
Summary of the method: as §1

[12] = target: Gal(b1-4)GlcNAc(b1-2)Man(a1-6)[Man(a1-3)]Man(b1-4)GlcNAc(b1-4)GlcNAc
Summary of the method: as §1

[13] = target: Gal(b1-4)GlcNAc(b1-2)[Gal(b1-4)GlcNAc(b1-4)]Man(a1-3)[Gal(b1-4)GlcNAc(b1-2)Man(a1-6)]Man(b1-4)GlcNAc(b1-4)GlcNAc
Summary of the method: as §1

[14] = target: Gal(b1-4)GlcNAc(b1-2)[Gal(b1-4)GlcNAc(b1-4)]Man(a1-3)[Gal(b1-4)GlcNAc(b1-2)[Gal(b1-4)GlcNAc(b1-6)]Man(a1-6)]Man(b1-4)GlcNAc(b1-4)GlcNAc
Summary of the method: as §1

[15] = target: Gal(b1-4)GlcNAc(b1-2)[Gal(b1-4)GlcNAc(b1-4)]Man(a1-3)[GlcNAc(b1-4)][Gal(b1-4)GlcNAc(b1-2)Man(a1-6)]Man(b1-4)GlcNAc(b1-4)GlcNAc
Summary of the method: as §1

[16] = target: Gal(b1-4)GlcNAc(b1-2)[Gal(b1-4)GlcNAc(b1-4)]Man(a1-3)[GlcNAc(b1-4)][Gal(b1-4)GlcNAc(b1-2)[Gal(b1-4)GlcNAc(b1-6)]Man(a1-6)]Man(b1-4)GlcNAc(b1-4)GlcNAc
Summary of the method: as §1

[17] = target: Gal(b1-4)GlcNAc(b1-2)[Gal(b1-4)GlcNAc(b1-6)]Man(a1-6)[Gal(b1-4)GlcNAc(b1-2)Man(a1-3)]Man(b1-4)GlcNAc(b1-4)GlcNAc
Summary of the method: as §1

[18] = target: Gal(b1-4)GlcNAc(b1-2)[Gal(b1-4)GlcNAc(b1-6)]Man(a1-6)[Gal(b1-4)GlcNAc(b1-2)Man(a1-3)]Man(b1-4)GlcNAc(b1-4)[Fuc(a1-6)]GlcNAc
Summary of the method: as §1

B1: DrGRIFIN (Danio rerio), Q6DGJ1 (protein)
chain: MTLRFEASCPDGLCPGWSVILKGETPPEASKFEINFLCDRDDRVAFHFNPRFTESDIICNSYMANRWGQEERCNHFPLGVEEPFQIEIYSDNDHFHVYIDKAKVMQYKHRVEDLKTITKLQVVNDVKISSLEITKKLFY
glycan array binding signal (z-score) (Gal(b1-4)Glc): -0.191 | glycan array binding signal (z-score) (Gal(b1-4)Glc6S): -0.201 | glycan array binding signal (z-score) (Gal(b1-4)GlcNAc): -0.203 | glycan array binding signal (z-score) [1]: -0.172 | glycan array binding signal (z-score) (Gal(b1-4)GlcNAc(b1-2)Man): -0.136 | glycan array binding signal (z-score) [2]: -0.202 | glycan array binding signal (z-score) [3]: -0.182 | glycan array binding signal (z-score) [4]: -0.164 | glycan array binding signal (z-score) [5]: -0.181 | glycan array binding signal (z-score) [6]: -0.15 | glycan array binding signal (z-score) [7]: -0.165 | glycan array binding signal (z-score) [8]: -0.164 | glycan array binding signal (z-score) [9]: -0.169 | glycan array binding signal (z-score) [10]: -0.171 | glycan array binding signal (z-score) [11]: -0.071 | glycan array binding signal (z-score) [12]: -0.162 | glycan array binding signal (z-score) [13]: -0.192 | glycan array binding signal (z-score) [14]: -0.137 | glycan array binding signal (z-score) [15]: -0.189 | glycan array binding signal (z-score) [16]: -0.192 | glycan array binding signal (z-score) [17]: -0.175 | glycan array binding signal (z-score) [18]: -0.168
